These results are taken from the supplement of paper PMC11417369.

Some of the results follow.

The assay has as its system PfAP2-HC AP2 domain (GST-tagged). Put plainly: gcPBM binding intensity (ln(normalized median fluorescence intensity)); higher = stronger DNA binding. The procedure, abridged:
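Probes on an Agilent 4 × 180k array were primer-extended, double-stranded and 36 bp long, taken from intergenic genomic regions, with negative controls added. GST-tagged P. falciparum DNA-binding domains from E. coli, about 25 μg on average, were applied to the array for 1 h in 1× PBS containing 1% milk, 0.2 mg/ml BSA, 0.5% salmon testes DNA and 0.03% Triton X-100. Binding intensity, obtained after Alexa488 anti-GST antibody detection and a 488 nm scan, is the highest Masliner-normalised natural-log median intensity across replicate spots of either probe orientation.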
On to “TTGATATAAAAAGAAAGTACTTTATAGATGTTTATT [XGTACX_site8144]”, for which the “gcPBM binding intensity (ln)” value turned out to be 9.64.
Turning to “TATAAAAATATATATATATATATATATATATATATA [TGCATGCA_negctrl_site541]”, the “gcPBM binding intensity (ln)” value was found to be 9.85.
In the case of “TTCTACGTTTTAAAAAAAAAAAAAAAAAAAAAAAAA [XGTACX_negctrl_site6]” it was 9.16; in that of “AATGTATTATGTAATAGTACGTATAATATCTTATTT [XGTACX_site3]”, 9.69.
“ATACATATCTATAATACACACATAAATGTAACATTT [CACACA_site7621]”: the “gcPBM binding intensity (ln)” value came to 10.
For “ACATATTATAGGAATACACACAAAAACTTATCGGTA [CACACA_site7587]”, the “gcPBM binding intensity (ln)” value came to 10.2.
ATTATATATATTGGAGTGCATATATAGTATTTTATA: the “gcPBM binding intensity (ln)” value turned out to be 9.57.
“ATAGAAATCTATTGTGATTATTATTTTATTTTTAGT [XGTACX_negctrl_site605]”: the “gcPBM binding intensity (ln)” value came out at 9.58.
As for “TGAAGATAAAAATATGCACACATATATATATATATA [CACACA_site8027]”, the “gcPBM binding intensity (ln)” value stood at 10.1.
In the case of “CATAAAAATGAACATACACACATATATTTATTTATA [CACACA_site7222]” it was 9.84.
Turning to “TCCGTATAATTTTGCACACGAATATAAATTTGATAA [CACACA_site136]”, the “gcPBM binding intensity (ln)” value is 9.62.
“ATTATATCACTGTGTTGTACTTCTTATATAAAAATA [XGTACX_site2333]”: the “gcPBM binding intensity (ln)” value came to 9.68.
Consider “ACATATCGGGTGCATTAACACACATTTATTTGAATA [CACACA_site8736]”, for which the “gcPBM binding intensity (ln)” value turned out to be 9.77.
Consider “ATATTACACAGATATGCACACATTGTAGTTATTTAT [CACACA_site5454]”, for which the “gcPBM binding intensity (ln)” value is 9.97.
As to “AAAAAGGAAATTTACACACACATATAACATACATTA [CACACA_site7534]”, the “gcPBM binding intensity (ln)” value worked out at 10.5.
For “AATTATAATAAATAACGTACAAAAAATAAATTATTT [XGTACX_site3627]”, the “gcPBM binding intensity (ln)” value stood at 9.74.
For “ATAAAAATAAAATGGACACACATATATACATATTTG [CACACA_site3277]” the value was 10.2; for “ATAAGCGAATATATATCACACACAAAAAAATCAGAC [CACACA_site8657]”, 10.3.
With “TATATATTCATGTGTACACACAAAAAAAAATAAAGT [CACACA_site2207]”, the “gcPBM binding intensity (ln)” value is 10.2.
“TTTTTTTTTGATATTTGTACTTAAGTAAATATTATA [XGTACX_site3843]”: the “gcPBM binding intensity (ln)” value was determined as 9.51.
Regarding “ATATTAGGGTCATGAACACACAAAAAAAAAAAAAAA [CACACA_site937]”, the “gcPBM binding intensity (ln)” value came to 9.55.
Take “TATCTTTTATAAGTGACACACATAAATATTTAAATT [CACACA_site833]”: the “gcPBM binding intensity (ln)” value came out at 9.6.
For “GCTATCATATCATGTTGTACACAACCTCAAAATGAA [XGTACX_site8757]”, the “gcPBM binding intensity (ln)” value is 9.64.
Take “AATAAGTGTTGATTCTTAAAATGACCATATAATAAT [TGCATGCA_negctrl_site221]”: the “gcPBM binding intensity (ln)” value was 9.66.
As for “TCATATTTACAAAAAGGTATTAATAAATAAAATATT [CACACA_negctrl_site259]”, the “gcPBM binding intensity (ln)” value was 9.53.
With “CGTTTATTAAACTTGACACACACACCCCCACATATA [CACACA_site8151]”, the “gcPBM binding intensity (ln)” value came out at 10.6.
As for “AATCGATAACAATGTAGTACCAGAAAAATAAATATT [XGTACX_site8501]”, the “gcPBM binding intensity (ln)” value amounted to 9.92.
For “TATATATATATATATGCATGCCATATGATATATATA [TGCATGCA_site109]” the value was 9.58; for “TTTAATTCTTATATTTGTACAGATTCATAATTAAAT [XGTACX_site7465]”, 9.41.
On to “CATGTCAAAATTATACGTACATATATAAGTTCCATT [XGTACX_site6331]”, for which the “gcPBM binding intensity (ln)” value worked out at 9.65.
As to “AAAAAAAAATAAAAAAGTACATTCATTTTATAAGAT [XGTACX_site3507]”, the “gcPBM binding intensity (ln)” value was 9.6.
In the case of “ATCCTCTTTTTAAGTTGTACAGGGTCGAAAAAAAAA [XGTACX_site6852]” it was 9.26; in that of “GATTATTATTATAAGGGTACAAATATTTAATAAAAA [XGTACX_site7144]”, 9.48; in that of “TTTTTTCAAATTATTCGATATGTAAAAAAATAAAAT [GTGCAC_negctrl_site241]”, 9.23.
In the case of “AAATATTTGTGTGGTTGTACTATAATGATAAAAATA [XGTACX_site7703]”, the “gcPBM binding intensity (ln)” value worked out at 9.88.
On to “TTTTTTTTTTTTGAGTGTACAAGATTGTTGTTCCAA [XGTACX_site6120]”, for which the “gcPBM binding intensity (ln)” value came out at 9.17.
GGTTTGAATTTTTAAGTGCATATAACATAAATGAAA: the “gcPBM binding intensity (ln)” value worked out at 9.38.
For “TTATATTATATATATATTATATATATGTATGCATAA [TGCATGCA_negctrl_site481]” the value was 9.37; for “CATACATACAAACACACACACATATATATATATATA [CACACA_site43]”, 10.2; for “AGATAGCTATTAAAAAGTACAAAAAAATATATATAT [XGTACX_site6289]”, 9.71.
For “ATAAATACAGATATTACACACTTCTTATTCTAAGAA [CACACA_site5640]” the value was 9.64.
For “TATTTTATATAAAGGTGTACTTATACAAAAATATAT [XGTACX_site7435]” the value was 9.54.
Take “TATACAGGAATATTTTTACACACTAATAATTATAAA [CACACA_site8477]”: the “gcPBM binding intensity (ln)” value was determined as 9.67.
Regarding “TATTTACAACAAATTTAATTATTTTTAACTTATAAA [GTGCAC_negctrl_site259]”, the “gcPBM binding intensity (ln)” value was 9.23.
For “TCCCAATTTCTATCCTGTACAGACATAAATATATAC [XGTACX_site5937]” the value was 9.73; for “AAGTAATTTGTTGACACACACACACGCATACCTATA [CACACA_site7140]”, 10.3; for “TTTTGAAATTTTTGTGTTTTTCCTTTTTATTTTATA [CACACA_negctrl_site1740]”, 9.62.
With “ATAAAGATTAATAAAATAAAATTCCGCAAACATATA [CACACA_negctrl_site244]”, the “gcPBM binding intensity (ln)” value turned out to be 9.7.
As to “ATAAATCCATGTAACTGTACTTTTTTTTTTTTTTTT [XGTACX_site7373]”, the “gcPBM binding intensity (ln)” value is 9.57.
As for “TTTTTTTTCTAAATTATATGAAAATATATGTTATGT [GTGCAC_negctrl_site85]”, the “gcPBM binding intensity (ln)” value is 9.57.
Turning to “TACATAAACATTTATACACACATTATAAATACATAT [CACACA_site4386]”, the “gcPBM binding intensity (ln)” value turned out to be 10.
In the case of “ACAATTTTAAAATGAACACACATGTTTTTCTTACTT [CACACA_site1014]” it was 9.92.
Consider “ATTTTCTATTTTATTTGTACGTAATTTAATTTTTTT [XGTACX_site3609]”, for which the “gcPBM binding intensity (ln)” value is 9.89.
“ACAAATACTAACAACGCATGTAAGCCTACAATAAAT [TGCATGCA_site551]”: the “gcPBM binding intensity (ln)” value worked out at 9.81.
In the case of “GCTCCTTTTACCATCGCACACGATAAAAAAAAATAA [CACACA_site3255]” it was 9.67; in that of “ATTATATATATATATATATATATATATATATTATAT [CACACA_negctrl_site234]”, 9.65.
